Assay results as given in the supplement of paper PMC7726561.
Over roughly 1,400 sequences, “thermal melting temperature (Tm) of peptide-HLA complex” has its median near 60; the lowest 2% begin near 45. The list shows a part of the results.

What follows are sequences tested against HLA-B*07:02 (assay: thermal melting temperature (Tm) of peptide-HLA complex; higher = more thermostable pHLA complex). Conditions: C1R-B*07:02.
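Note: cell lysates heated 10 min at 37–73 °C, remaining pHLA pulled down with pan-class I antibody, peptides quantified by DIA-MS versus 37 °C, Tm where half the complex is lost.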

In order of rising thermal melting temperature:
1. SPLVSRLTLY  41.1 °C
2. IPIGGGTSV  41.6 °C
3. AALPFVRQAGL  42.3 °C
4. NVKKVSLEL  44.3 °C
5. RPFFPLTATL  49.6 °C
6. RPWSNSRGL  50.6 °C
7. HPYRAFPVL  51.6 °C
8. KPDSDRFVFL  54.2 °C
9. VPNWHRDL  55.2 °C
10. TPRVPDNSLL  55.2 °C
11. TPINKPPVL  56 °C
12. YPRGGSSEIAF  56.1 °C
13. SPRSSTVHIL  56.8 °C
14. APRGTGIVSA  57.4 °C
15. APFDREPFTL  57.5 °C
16. QPRSPGPDYSL  57.7 °C
17. IPIALSGRDIL  57.8 °C
18. APRAPPGPAGL  58.2 °C
19. RPTDVAISF  58.3 °C
20. IPDVKGAVL  58.7 °C
21. RPAEVGGMQL  59.1 °C
22. RPYAPINANAI  59.2 °C
23. RPGLTTVL  59.3 °C
24. SPRAPVSPLKF  59.5 °C
25. SPGPRPVL  59.6 °C
26. FPIEVRHYL  59.6 °C
27. HPELTPLL  59.7 °C
28. APSPASFQRSL  59.9 °C
29. RPAYLVTL  60.1 °C
30. SPMMPRITSVF  60.1 °C
31. YPRTLDVVL  60.1 °C
32. IPQPPILQL  60.1 °C
33. RPGPVLPAV  60.1 °C
34. APALRPLVI  60.1 °C
35. SPDLGKNLQTL  60.1 °C
36. RPAANPIQF  60.6 °C
37. LARPVGTSL  60.8 °C
38. GPRALTEEL  60.9 °C
39. KPINSVLQL  61 °C
40. QPQQPGFFL  61.1 °C
41. YPKRPLLGL  61.3 °C
42. GPREAFRQL  61.5 °C
43. NPNGRFVVV  61.6 °C
44. SPRVQFQSL  61.7 °C
45. TPSLVKSTSQL  61.8 °C
46. SPRSGYFAL  61.8 °C
47. APRPPQDLIGL  62.2 °C
48. RPSLPLPHF  62.4 °C
49. APRPLPQLL  62.5 °C
50. KPSLPFTSL  62.5 °C
51. SPFFRALL  62.6 °C
52. SPAEPSVYATL  62.8 °C
53. APGPGRKEL  63.2 °C
54. APRLPITGL  63.6 °C
55. APFLRNVEL  64.3 °C
56. YPHQVPLVL  64.4 °C
